In all, about 220,000 compounds went through this assay and about 16,000 (7.3%) were called active. This list was built around the results that the source calls inconclusive (neither active nor inactive); the mix of calls is not that of the screen. Calls follow the shape of the dose curve; as a rule, active = well fitted inhibition curve with a large enough effect (not every such curve was filed as active); inconclusive = small, poorly fitted or top-dose-only effect, or another doubt; inactive = no such curve, though single readings can be large or run the other way. No potency is given beside an inconclusive call; the fits are too rough.
Molecular target: Aldehyde dehydrogenase 1A1 (Homo sapiens) (UniProt P00352)
Test: qHTS Assay for Inhibitors of Aldehyde Dehydrogenase 1 (ALDH1A1)
Conditions: Purified ALDH1A1, NADH fluorescence, propionaldehyde substrate; series mostly up to 75.3 µM
Potency is read from the fitted curve at half-maximal effect; tags tell the direction and shape of the fitted curve.

Chain of UniProt P00352 (P00352 whole entry, looked up): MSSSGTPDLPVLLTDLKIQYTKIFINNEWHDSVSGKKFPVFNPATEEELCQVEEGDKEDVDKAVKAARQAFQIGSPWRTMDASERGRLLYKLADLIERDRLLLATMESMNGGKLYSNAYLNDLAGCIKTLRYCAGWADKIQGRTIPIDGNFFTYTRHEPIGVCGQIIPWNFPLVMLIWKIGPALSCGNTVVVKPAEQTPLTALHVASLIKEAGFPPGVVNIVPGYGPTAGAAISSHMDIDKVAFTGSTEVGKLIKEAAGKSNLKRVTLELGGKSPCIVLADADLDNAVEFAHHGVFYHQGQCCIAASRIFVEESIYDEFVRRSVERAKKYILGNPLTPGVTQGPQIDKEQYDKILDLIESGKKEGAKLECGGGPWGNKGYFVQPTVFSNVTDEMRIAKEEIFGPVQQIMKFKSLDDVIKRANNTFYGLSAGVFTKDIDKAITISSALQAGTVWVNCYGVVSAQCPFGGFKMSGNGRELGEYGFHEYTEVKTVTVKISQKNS

| Compound | Potency |
| --- | --- |
| Cc1ccnc(NS(=O)(=O)c2cccs2)c1 | inconclusive [inhibitor, single point] |
| CNS(=O)(=O)c1ccc(NCC2COc3ccccc3O2)c([N+](=O)[O-])c1 (configuration not stated) | inactive |
| CN(C)/C=C/C(=O)c1ccccc1OCc1cnc(Cl)s1 | inactive |
| CC(C)c1ccc(/C=C/C(=O)N2CCCCCC2)cc1 | inconclusive [inhibitor, single point] |
| CN(C)CCn1c(=S)[nH]c2ncccc2c1=O | inactive |
| Cn1c2ccccc2c2ncn(CCN3CCOCC3)c(=O)c21 | inconclusive [inhibitor, single point] |
| COCCSc1nc(N)c2c3c(sc2n1)CN(C)CC3 | inconclusive [inhibitor, single point] |
| COc1ccc(CCNC(=O)C2CC(=O)N(c3ccccc3)C2)cc1OC (configuration not stated) | inconclusive [inhibitor, single point] |
| COC(=O)c1ccc(CSc2ccc3nnc(-c4ccccc4)n3n2)o1 | inconclusive [inhibitor, single point] |
| Cc1c(CN(C)C)c2c(n1Cc1ccccc1)C(=O)c1ccc(Br)cc1-2 | active: 10 µM |
| CCOC(=O)c1cnc2ccc(OCC)cc2c1NCc1cccnc1 | inconclusive [inhibitor, single point] |
| Cn1c(=O)[nH]c(=O)c2c1nc(SCC(O)CO)n2Cc1ccccc1Cl (configuration not stated) | active: 14.1 µM |
| O=C(CSc1nc2[nH]ncc2c(=O)n1-c1ccccc1)c1ccc2c(c1)OCCO2 | active: 0.316 µM |
| Cc1nc2ccc(S(=O)(=O)NC(C(=O)Nc3nccs3)C(C)C)cc2s1 (configuration not stated) | inactive |
| CCC1=NN2C(=N)/C(=C\c3cccn3-c3ccc(Cl)cc3)C(=O)N=C2S1 | inconclusive [inhibitor, partial curve] |
| Cc1ccc(-n2c(N)c(C(=O)N3CCN(C)CC3)sc2=S)cc1 | active: 22.4 µM |
| C=C(C)C1Cc2cc3ccc(=O)oc3cc2O1 (configuration not stated) | inconclusive [inhibitor, partial curve] |
| CC1CCC2(CC1)NC(=O)N(CC(=O)Nc1ccccc1-c1ccccc1)C2=O (configuration not stated) | inactive |
| CCCCN(C(=O)NC(=O)C1=C(N2CCOCC2)/C(=C/c2ccccc2)CC1)S(C)(=O)=O | inconclusive [inhibitor, partial curve] |
| Nc1nc2ccccc2nc1N | inconclusive [inhibitor, partial curve] |
| O=C(CSc1nnc(-c2cnccn2)n1Cc1ccco1)c1ccccc1 | inactive |
| COCCN1Cc2cccc(C(=O)NC(C)CCc3ccco3)c2C1=O (configuration not stated) | inconclusive [inhibitor, partial curve] |
